Source: PubChem BioAssay AID1508624 (National Center for Advancing Translational Sciences (NCATS), 2021)
In all, about 48,000 compounds went through this assay and about 120 (0.25%) were called active. Another 4% or so got no clear call; they are omitted. Calls follow the shape of the dose curve; as a rule, active = well fitted activation curve with a large enough effect; inconclusive = small, poorly fitted or top-dose-only effect, or another doubt; inactive = no such curve, though single readings can be large or run the other way. Some of the results follow.

Test: Primary qHTS for Identification of Small Molecule Activators of Huntingtin-Antisense Promoter Activity; also: nearly all actives have a fitted effect of over 55% in size
Settings: HEK293 HTT-AS promoter firefly luciferase reporter, 24 h; series mostly up to 57.5 µM; activity change, positive = activation: at the top concentration
In short: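 Firefly luciferase readout (Dual-Glo, 10 min RT) after 24 h, 37 °C compound exposure (final up to 57.5 uM) of HEK293 reporter cells cultured 24 h beforehand; PTC124 at 50 uM final as control inhibitor; activity scaled vehicle 0%, zero RLU -100%.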
Potency is read from the fitted curve at half-maximal effect.

Row | SMILES | activity change, positive = activation | Potency
1 | COc1cccc(CNC(=O)C2CCN(S(=O)(=O)N3CCC(C)CC3)CC2)c1 | inactive: -29.3% | 
2 | CC1CCN(S(=O)(=O)c2ccc3nc(Nc4ccc(C#N)cc4)ccc3c2)CC1 | inactive: -42.2% | 
3 | COc1ccccc1CNS(=O)(=O)c1ccc(F)c(C(=O)Nc2cc(Cl)ccc2OC)c1 | inactive: -33.3% | 
4 | O=C(NCC(c1cccnc1)N1CCc2ccccc2C1)C(=O)Nc1ccccc1 (configuration not stated) | inactive: -3.22% | 
5 | COc1ccccc1N1CCN(S(=O)(=O)c2c(C)nc3sc(C)c(C)n3c2=O)CC1 | inactive: -17.9% | 
6 | CC1Cc2cc(S(=O)(=O)N(C)c3ccc(Br)cc3)ccc2N1C(=O)C1CC1 (configuration not stated) | inactive: -32.3% | 
7 | COc1ccc(NC(=O)C2CCCN(S(=O)(=O)c3cccs3)C2)cc1 (configuration not stated) | inactive: -16.9% | 
8 | CCC1CCCCN1CCCNC(=O)c1cc2c(=O)n(CC)c3ccccc3c2s1 (configuration not stated) | inactive: -10.2% | 
9 | CCN1CCN(C(c2ccccc2)c2c(O)cc(C)n(Cc3ccco3)c2=O)CC1 (configuration not stated) | inactive: 1.54% | 
10 | COc1ccc(CNC(=O)C2CCN(S(=O)(=O)c3ccc(C)cc3)CC2)cc1 | inactive: -2.78% | 
11 | N#C/C(=C/c1ccc(Cl)cc1Cl)c1nc2ccccc2c(=O)[nH]1 | inactive: -8.4% | 
12 | COC(=O)c1c(N)n(-c2ccc(OC)c(Cl)c2)c2nc3ccccc3nc12 | inactive: -5.93% | 
13 | COc1ccc(-c2nnc3c4ccccc4c(-c4ccccc4)nn23)cc1 | inactive: -8.36% | 
14 | CCOc1ccc(CCNC(=O)c2cccc(-n3c(C)nc4cccnc43)c2)cc1 | inactive: -31.1% | 
15 | O=C(Nc1ccccc1F)c1ccc(-c2ccccc2)s1 | inactive: 22.3% | 
16 | CCN(CC)C(=O)c1sc2c(c1C)c(=O)n(-c1ccc(Cl)c(Cl)c1)c(=O)n2CC(=O)Nc1cccc(OC)c1 | inactive: -30.9% | 
17 | CCOC(=O)c1nnn(CC(=O)NC(=O)Nc2cccc(CC)c2)c1C(=O)OCC | inactive: -20.1% | 
18 | O=C(COc1ccc(Cl)cc1)NCCc1csc(-c2ccc(F)cc2)n1 | inactive: -23.3% | 
19 | Cc1nn(C)c(C)c1S(=O)(=O)N(CC(=O)N1CCN(c2ccccc2)CC1)c1ccc(C(C)C)cc1 | inactive: -6.68% | 

Row | SMILES | activity change, positive = activation | Potency
20 | CCOc1ccccc1NC(=O)C1CCN(S(=O)(=O)c2ccc3[nH]c4c(c3c2)CCCCC4)CC1 | inactive: -20% | 
21 | CCCCCNC(=O)c1ccc2c(c1)nc(C)n2-c1cccc(C)c1 | inactive: -2.48% | 
22 | O=C(CCn1c(=O)c2cccn2c2ccccc21)Nc1ccc(F)cc1 | inactive: -18.3% | 
23 | Cc1ccc(C)c(NC(=O)Cn2c(=O)ccc3cc(S(=O)(=O)N4CCCC4)ccc32)c1 | inactive: -36.9% | 
24 | O=C(NCc1cccs1)c1ccc(CSc2nc3cccnc3n2Cc2ccccc2)cc1 | inactive: -25.6% | 
25 | O=C1C2=C(Nc3ccccc3SC2c2ccccc2C(F)(F)F)c2ccccc21 (configuration not stated) | inactive: -42.8% | 
26 | Cc1cc(C)n(-c2nnc(Nc3cc(Cl)ccc3C)c3ccccc23)n1 | inactive: -15.3% | 
27 | COc1ccccc1NC(=O)c1cc2c([nH]c1=O)CC(C)(C)CC2=O | inactive: 15.2% | 
28 | Cc1nc(-c2ccc(C)c(S(=O)(=O)N3CCC(C(=O)Nc4ccc(Cl)cc4)CC3)c2)no1 | inactive: -66.7% | 
29 | Cc1ccccc1NC(=O)c1ccc(F)c(S(=O)(=O)N(C)C2CCCCC2)c1 | inactive: -44.9% | 
30 | COc1ccc(NC(=O)c2sc3nc4c(cc3c2N)CCCCCC4)cc1OC | inactive: 1.2% [at 11.5 µM, percent change from vehicle, -100% = no light] | 
31 | COc1cc2c(cc1OC)[C@@H]1C(=O)c3ccc4c(c3O[C@@H]1CO2)C=CC(C)(C)O4 | inactive: -63.1% | 
32 | COc1ccc(CCNC(=O)CCn2c(=O)c3cccn3c3cccnc32)c(OC)c1OC | inactive: -15.1% | 
33 | Cc1cccc(NC(=O)N2CCC(n3c(C)nc4cccnc43)CC2)c1 | inactive: 18.4% | 
34 | CCOC(=O)N1CCC(NC(=O)c2ccc3c(c2)N(Cc2cc(C)ccc2C)C(=O)c2ccccc2S3=O)CC1 (configuration not stated) | inactive: -28.8% | 
35 | CCC(C)(C)NC(=O)Cn1c(=O)ccc2cc(S(=O)(=O)N3CCC(C)CC3)ccc21 | inactive: -16.7% | 
36 | CCOc1cc(C(=O)NCCc2csc(-c3ccc(C)cc3)n2)cc(OCC)c1OCC | inactive: -31.1% | 
37 | CN(C(=O)c1cc2c(=O)n3ccccc3nc2n1C)c1ccccc1 |  | active: 5.62 µM
38 | CC(C)c1cnn2c(NCc3ccccc3)cc(N[C@@H](CO)[C@H](O)CO)nc12 | inactive: -39% | 

Row | SMILES | activity change, positive = activation | Potency
39 | O=C(Nc1ccc(F)cc1Cl)C1Cc2ccccc2N1C(=O)c1ccccc1 (configuration not stated) | inactive: -27.1% | 
40 | O=C(CCn1nc(-c2ccc(Cl)cc2)c2ccccc2c1=O)Nc1ccc(OC(F)(F)F)cc1 | inactive: -25.4% | 
41 | CC(=O)c1cccc(NC(=O)c2nc3ccccc3nc2N2CCCCC2)c1 | inactive: 0% | 
42 | Cc1ccc(Cl)cc1N1CCN(C(=O)C2CCN(S(=O)(=O)c3ccc4c(c3)oc(=O)n4C)CC2)CC1 | inactive: -34.7% | 
43 | COc1ccc(OC)c(CNC(=O)C2CCN(c3ncnc4c3nc3n4CCCCC3)CC2)c1 | inactive: 1.37% | 
44 | CN1C(=O)C2(c3ccccc31)N(c1ccc(F)c(Cl)c1)C(=O)CS2(=O)=O (configuration not stated) | inactive: -10.9% | 
45 | Cc1cc(C)c2c(n1)nn1c(C)c(CCC(=O)NCc3ccc(Cl)cc3)c(C)nc21 | inactive: -7.79% | 
46 | COC(=O)c1cc(S(=O)(=O)NCC2CCN(Cc3ccccc3F)CC2)c[nH]1 | inactive: -4.24% | 
47 | O=C(Nc1cc(F)ccc1F)c1cc2nc(-c3ccco3)cc(C(F)(F)Cl)n2n1 | inactive: 17.1% | 
48 | CCC(=O)N1CCc2cc(S(=O)(=O)CCC(=O)N3CCN(c4ccc(C(C)=O)cc4)CC3)ccc21 | inactive: -29.8% | 
49 | CCOc1ccc(-c2cn3c(n2)sc2cc(C(=O)NCCc4ccc(OC)c(OC)c4)ccc23)cc1 | inactive: 0.172% | 
50 | Cc1ccc(C2=NN(CC(=O)NCCc3ccc(Cl)cc3)C(=O)CC2)cc1 | inactive: -7.28% | 
51 | CCOC(=O)c1c(S(=O)(=O)N2CCC(C(=O)Nc3ccc(OCC)cc3)CC2)c(C)n(C)c1C | inactive: -24.9% | 
52 | CCCCN(CCCC)CCNC(=O)c1cn(C)c2ccc(S(=O)(=O)N3CCCC3)cc2c1=O | inactive: 12.3% [at 11.5 µM, percent change from vehicle, -100% = no light] | 
53 | COc1ccc(OC)c(NC(=O)N2c3ccccc3Sc3ccccc32)c1 | inactive: -29.6% | 
54 | CCc1ccc(C2c3c(-c4cc(C)ccc4O)n[nH]c3C(=O)N2Cc2cccnc2)cc1 (configuration not stated) | inactive: -27.5% | 
55 | O=C(NCc1ccccc1Cl)c1ccc(Nc2nc3ccccc3n3nnnc23)cc1 | inactive: 22.7% | 
56 | Cc1nn(CCC(=O)N2CCN(c3ccccc3)CC2)c(C)c1S(=O)(=O)N1CCCC1 | inactive: -2.71% | 
57 | CCc1cnc2c(c1SCC(=O)N1CCC(C)CC1)c(=O)n(C)c(=O)n2C | inactive: -16.7% | 
